Test results reported in article PMC4336329 (PLoS ONE, 2015).
About 2,200 (0.71%) of roughly 310,000 compounds showed an effect of 50% or more. The effect is printed as a negative number. This is one part of the list.

The compounds below were run against human ether-à-go-go-related gene (hERG) potassium channel (human, UniProt Q12809) (assay: primary screen, population patch clamp on CHO cells stably expressing hERG).
human ether-à-go-go-related gene (hERG) potassium channel, sequence (Q12809 whole entry, looked up): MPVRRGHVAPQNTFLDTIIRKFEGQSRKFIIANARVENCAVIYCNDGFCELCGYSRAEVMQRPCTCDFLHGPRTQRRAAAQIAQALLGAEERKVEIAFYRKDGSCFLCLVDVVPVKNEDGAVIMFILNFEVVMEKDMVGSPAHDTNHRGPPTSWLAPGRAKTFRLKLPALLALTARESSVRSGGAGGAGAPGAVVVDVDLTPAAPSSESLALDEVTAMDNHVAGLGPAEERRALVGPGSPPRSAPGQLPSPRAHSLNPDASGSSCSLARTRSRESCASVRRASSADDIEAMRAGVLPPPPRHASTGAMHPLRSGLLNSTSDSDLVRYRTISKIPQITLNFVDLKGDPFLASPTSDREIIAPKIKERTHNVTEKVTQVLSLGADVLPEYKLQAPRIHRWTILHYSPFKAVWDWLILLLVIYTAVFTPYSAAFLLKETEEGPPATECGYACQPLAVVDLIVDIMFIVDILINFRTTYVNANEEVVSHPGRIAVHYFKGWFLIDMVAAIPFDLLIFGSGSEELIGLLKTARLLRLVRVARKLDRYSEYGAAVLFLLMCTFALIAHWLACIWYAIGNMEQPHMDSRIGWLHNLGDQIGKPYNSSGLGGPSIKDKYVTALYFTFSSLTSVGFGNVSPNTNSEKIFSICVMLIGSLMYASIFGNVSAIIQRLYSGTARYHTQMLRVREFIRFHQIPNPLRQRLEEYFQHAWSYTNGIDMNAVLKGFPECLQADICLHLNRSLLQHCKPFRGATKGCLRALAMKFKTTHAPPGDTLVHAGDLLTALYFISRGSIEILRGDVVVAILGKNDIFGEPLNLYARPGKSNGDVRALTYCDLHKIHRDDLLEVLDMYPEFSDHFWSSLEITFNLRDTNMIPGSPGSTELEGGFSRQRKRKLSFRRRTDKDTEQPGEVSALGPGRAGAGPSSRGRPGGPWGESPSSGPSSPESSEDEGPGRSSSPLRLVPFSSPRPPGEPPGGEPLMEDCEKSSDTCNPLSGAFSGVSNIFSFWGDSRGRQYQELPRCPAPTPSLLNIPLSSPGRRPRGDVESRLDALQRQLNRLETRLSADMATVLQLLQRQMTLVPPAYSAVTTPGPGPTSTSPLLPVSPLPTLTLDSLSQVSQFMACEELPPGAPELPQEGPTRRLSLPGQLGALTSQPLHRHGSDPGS

| SMILES | hERG current change (%, negative = inhibition) at 1uM |
| --- | --- |
| CCN(CCN(C)C)C(=O)Cn1ncc2c1-c1cc(C)ccc1OC2 | -0.617% |
| CNC(=O)CN1C(=O)NC(c2ccccc2)(c2ccccc2)C1=O | 7.25% |
| O=C(CCNC(=O)c1ccc([N+](=O)[O-])cc1)Nc1cccc(S(=O)(=O)N2CCOCC2)c1 | -5.97% |
| O=C(Nn1c(C2CC2)nc2ccccc2c1=O)c1ccco1 | -3.66% |
| CN(CCCC(=O)Nc1ccccc1F)S(=O)(=O)c1ccc(F)cc1 | 7.08% |
| COCCn1cc(C(=S)N2CCOCC2)c2ccccc21 | 4.29% |
| CSc1cc(-c2ccc(Cl)cc2)[nH]c(=O)c1C#N | 8.84% |
| CC[N+](C)(CC)CCOC(=O)C(O)(c1ccccc1)C1CCCCC1.[Br-] (centres unmarked) | 5.01% |
| O=C(COc1ccc2ccccc2c1Br)NC(=S)Nc1cccc(CO)c1 | 7.86% |
| CCOC(=O)c1c(NC(=S)Nc2ccccc2)sc2c1CC(C)(C)SC2 | 2.46% |
| COc1ccc(CCNC(=O)CN(c2cccc([N+](=O)[O-])c2)S(C)(=O)=O)cc1 | 9.2% |
| COC(=O)c1[nH]c(C)c(/C(O)=C2\C(=O)C(=O)N(CCN(C)C)C2c2ccc(C)o2)c1C (centres unmarked) | 4.24% |
| CC(=O)Nc1c(I)c(NC(C)=O)c(I)c(C(=O)[O-])c1I.O.[Na+] | -0.997% |
| Cc1ccc(C)c(NS(=O)(=O)c2ccc(OCC(=O)NCC3CCCO3)cc2)c1 (centres unmarked) | 9.63% |
| CCOCCCn1c(=NC(C)=O)c(C#N)cc2c(=O)n3ccccc3nc21 | 11.7% |
| COc1ccc(S(=O)(=O)N2CCC[C@H]2C(=O)NC2=NCCS2)cc1 | 1.86% |
| Cl.c1ccc2c(CC3=NCCN3)cccc2c1 | -4.22% |
| O=C(O)/C=C/c1ccc(-n2ccnc2)cc1 | 16.6% |
| CC(C)(C)N/N=C/c1c(O)n(-c2ccc(Cl)cn2)c(=O)c2ccccc12 | 15.8% |
| Cc1ccccc1NC(=O)C(C)OC(=O)C1CC(=O)N(Cc2ccco2)C1 (centres unmarked) | 12.1% |
| Cc1ccc(-c2noc(CCCC(=O)NCC3CCCO3)n2)cc1 (centres unmarked) | 20.2% |
| O=C(c1ccc(F)cc1)N1CCC2(CC1)NCCc1[nH]cnc12 | 8.81% |

| SMILES | hERG current change (%, negative = inhibition) at 1uM |
| --- | --- |
| COC(=O)c1cc(C)nc2c1c(C)nn2-c1ccccc1 | 11% |
| Cc1ccc(Cl)cc1NC(=O)C(=O)N/N=C/c1ccc2c(c1)OCO2 | 12.2% |
| CCS(=O)(=O)c1c([N+](=O)[O-])ncn1C | 2.28% |
| O=C(/C=C/c1ccco1)Nc1scc(-c2ccccc2)c1C(=O)O | 12.7% |
| Cc1c(/C=N/NC(=O)c2cccnc2)c2ccccn2c1C(=O)c1ccc(F)cc1 | -1.52% |
| COc1ccc2oc(C(=O)OCC(=O)NC(=O)c3ccccc3)c(C)c2c1 | 9.62% |
| O=C(NCc1ccccc1)c1ccc(S(=O)(=O)C(F)F)cc1 | -8.44% |
| Cc1ccc(Nc2nc(N)nc(CN3CCN(C(=O)c4ccco4)CC3)n2)cc1Cl | -54.1% |
| Nc1c(Cl)ncnc1NCc1ccccc1 | 11.9% |
| O=C(NC1CCCCC1)c1nc2c(nnn2Cc2ccccc2Cl)c(=O)[nH]1 | 17.5% |
| CCOC(=O)N1CCC(N2CCN(S(=O)(=O)c3ccc(C)cc3)CC2)CC1.O=C(O)C(=O)O | -4.37% |
| N#Cc1c(/N=C/c2ccco2)sc2c1CCC2 | -4.57% |
| CS(=O)(=O)NN1C(=O)c2ccccc2NC1c1cccc(O)c1 (centres unmarked) | 10.8% |
| CN(C)/N=C/c1ccc([N+](=O)[O-])cc1[N+](=O)[O-] | 10.5% |
| CCSc1nnc(NC(=O)CCc2ccccc2)s1 | 4.4% |
| COc1ccccc1N1N=C(C(=O)c2ccccc2)C2C(=O)N(c3ccc(Br)cc3)C(=O)C21 (centres unmarked) | 12.9% |
| CS(=O)(=O)c1ccc2nc(NC(=O)c3cccc([N+](=O)[O-])c3)sc2c1 | 11.1% |
| Nc1c(C(=O)NCCN2CCOCC2)c2nc3ccccc3nc2n1CCc1ccccc1F | 5.25% |
| O=C(NCCO)C(=O)NCC1CCCN1S(=O)(=O)c1cccs1 (centres unmarked) | 12.5% |
| Nc1c(C(=O)Nc2ccc3c(c2)OCCO3)nnn1Cc1cccc(Br)c1 | 3.9% |
| COCCNC(=O)CSc1nnc(-c2ccccc2F)n1Cc1ccccc1 | 9.99% |
| CNC(=S)N1N=C(c2ccc(OC)cc2)CC1c1ccc(Cl)cc1Cl (centres unmarked) | 13.9% |
